Reference: PubChem BioAssay AID1347073 (National Center for Advancing Translational Sciences (NCATS), 2019)
Hit rate of the full screen: of about 45,000 compounds, about 200 (0.44%) were called active. Inconclusive results (about 7%) are left out. Calls come from the whole dose curve; as a rule, active = well fitted activation curve with a large enough effect; inconclusive = small, poorly fitted or top-dose-only effect; inactive = no such curve, though single readings can be large or run the other way. The list shows a part of the results.

Test: qHTS of TDP-43 Inhibitors: NCGC Sytravon Library Screen; note: 0% is about no effect; nearly all actives have a fitted effect of over 55% in size
Settings: yeast TDP-43 toxicity rescue, BacTiter-Glo growth, 24 h; series mostly up to 46.1 µM; growth rescue (activation): at the top concentration
How it was run: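 TDP-43-expressing yeast, pregrown in raffinose, seeded at OD600 0.02 in galactose medium with compound for 24 hr at 30 deg C. Growth read by BacTiter-Glo luminescence, so rescue of toxicity appears as activation.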

Compound | growth rescue (activation)
COC(C(=O)Nc1ccc(Cl)cc1C)c1ccccc1 (configuration not stated) | inactive: 26.5%
CC1(C(=O)NS(=O)(=O)Cc2ccccc2)CCN1C(=O)CCc1ccccc1 (configuration not stated) | inactive: 12%
Cc1ccc(S(=O)(=O)N(C)C)cc1NC(=O)C1Cc2ccccc2CN1C(=O)c1ccco1 (configuration not stated) | inactive: -7.23%
Cc1cccc(NS(=O)(=O)c2cc(C(=O)N3CCCC3)ccc2Cl)c1 | inactive: 13.7%
CCN(CC)N=Nc1ccc(S(=O)(=O)Nc2nc(C)cc(C)n2)cc1 | inactive: 3.4%
O=C(CCCN1C(=O)NC2(CCCC2)C1=O)Nc1ccc(F)cc1 | inactive: 4.15%
COc1cc(C(=O)N/N=C/c2ccc(OC)c(CN3CCN(c4ccc(F)cc4)CC3)c2)ccc1O | inactive: -8.09%
CCOc1ccc(/C(O)=C2/C(=O)C(=O)N(c3ncccn3)C2c2ccc(Cl)cc2)cc1 (configuration not stated) | inactive: -15.3%
CCN(CC)c1ccc(C=C2C(=O)OC(c3ccccc3)OC2=O)cc1 (configuration not stated) | inactive: 5.84%
CCN1CCN(C(=O)c2cc(=O)c3cc(C)ccc3o2)CC1 | inactive: -10.7%
O=C(O)CNC(=S)N(Cc1ccccc1Cl)C1CCCCC1 | inactive: -2.09%
Cc1cccc(OCC(=O)N/N=C/c2sc(=O)n(Cc3cccc(C(=O)O)c3)c2Cl)c1 | inactive: -11.2%
O=C(Nc1nnc([C@@H]2C[C@H](O)[C@@H](CO)O2)s1)Nc1ccc(F)cc1F | inactive: -2.21%
CCCn1c(N)c(N(CCOC)C(=O)c2ccc(Cl)c([N+](=O)[O-])c2)c(=O)[nH]c1=O | inactive: 3.02%
Cc1c(Cl)cccc1NC(=S)NC1CC1 | inactive: 15.3%
C=CCNC(=O)c1cc2c(=O)c3ccccc3oc2nc1C | inactive: 14.8%
COc1ccc(-c2cc(C(F)F)n3ncc(C(=O)N4CCCc5ccccc54)c3n2)cc1 | inactive: 5.3%
CSc1ccc(C(=O)C2CCCN(C(=O)CCc3cnn(C)c3)C2)cc1 (configuration not stated) | inactive: 27.5%
O=C(COC(=O)C1CCN(S(=O)(=O)c2cccc3cccnc23)CC1)c1ccccc1 | inactive: 14.4%
COC(=O)C1CN(C(=O)C(C)Oc2ccccc2Cl)c2ccccc2O1 (configuration not stated) | inactive: 19.3%
Cc1ccc(NC2=NCC(=O)N2Cc2ccc3c(c2)OCO3)cc1 | inactive: 7.24%
COc1ccc(C(=O)NCC(=O)OCC(=O)N2CC(C)OC(C)C2)cc1OC (configuration not stated) | inactive: 12.1%
Cc1cc(Cl)c2ccc(Cl)cc2n1 | inactive: -0.813%

Compound | growth rescue (activation)
CS(=O)(=O)N1CCCC(C(=O)Nc2ccc(F)cc2F)C1 (configuration not stated) | inactive: -9.87%
COc1ccc(NC(=S)N2CCN(C/C=C/c3ccccc3)CC2)cc1 | inactive: -6.46%
CCOc1ncccc1C(=O)OCc1c(Cl)cccc1Cl | inactive: 9.66%
O=C(Oc1ccc(-c2cnc3ccccc3n2)cc1)c1cccc([N+](=O)[O-])c1 | inactive: 18.9%
N#CCCN(/N=C/c1cccnc1)C1=NS(=O)(=O)c2ccccc21 | inactive: -5.55%
COCCCN(C(=S)Nc1ccc(C)cc1Cl)C(C)c1ccncc1 (configuration not stated) | inactive: 14%
CCn1cc(CN2CCC(n3nccc3NC(=O)c3ccccc3C)CC2)cn1 | inactive: 3.59%
O=C1NC(=O)/C(=C\c2ccccc2OCc2ccccc2)S1 | inactive: 12.7%
CC(NC(=O)c1ccccc1)c1nnc(SCc2nc3ccccc3c(=O)[nH]2)n1C (configuration not stated) | inactive: -3.34%
CCn1c(C)nc2cc(C(=O)NNC(=O)[C@@H](NC(=O)c3cc(OC)cc(OC)c3)C(C)C)ccc21 | inactive: 3.9%
O=C(Nc1ccccn1)c1ccc2c(c1)OCCO2 | inactive: -29%
COc1ccc(N2C(=O)c3ccc(C(=O)Nc4ccc(NC(C)=O)cc4)cc3C2=O)cc1 | inactive: -15%
Cc1ccn2cc(CC(=O)O)nc2c1 | inactive: -11.3%
CNc1ccccc1C(C)(C)c1ccn[nH]1 | inactive: -2.01%
CN(C)c1cccc(C(=O)OCC(=O)N(Cc2ccccc2)C2CCS(=O)(=O)C2)c1 (configuration not stated) | inactive: 1.43%
Brc1cc2c(cc1-c1nc3ccccc3s1)OCO2 | inactive: 6.44%
Cc1[nH]nc2c1C(c1ccoc1)C(C#N)=C(N)O2 (configuration not stated) | inactive: 5.87%
COc1ccc(Cl)cc1N(C(C)C(=O)O)S(C)(=O)=O (configuration not stated) | inactive: 7.89%
c1csc(CNCc2ccncc2)c1 | inactive: -3.01%
CC(=O)Nc1cccc(-c2cnc(NC(C)=O)cn2)c1 | inactive: -22.8%
CCN(CC)C(=O)C1(P(=O)(c2ccccc2)c2ccccc2)CCC1 | inactive: -3.76%
CC(C)c1ccccc1NC(=O)Nc1nnc([C@H]2C[C@H](O)[C@@H](CO)O2)s1 | inactive: -5.14%
C#CC(C)(CC)NC(=O)Cn1nnc(-c2cccc(C(F)(F)F)c2)n1 (configuration not stated) | inactive: -2.93%

Compound | growth rescue (activation)
CC(C)NC(=O)C1(C)CCCN1Cc1ccccc1C#N (configuration not stated) | inactive: 4.38%
O=C(NCc1ccc2c(c1)OCO2)c1cc(-c2ccncc2)nc2ccccc12 | inactive: 13.9%
CCn1cc(CNCc2cn[nH]c2-c2cc3ccccc3o2)cn1 | inactive: 0.743%
CN(C(=O)Cn1cc(C(F)(F)F)ccc1=O)c1c(N)n(Cc2ccccc2)c(=O)[nH]c1=O | inactive: 34.9%
O=C(COC(=O)c1cc(-c2cccs2)nn1-c1ccccc1)Nc1cccc([N+](=O)[O-])c1 | inactive: 3.19%
COc1cc(C(C)=O)ccc1OCCCOc1cccc2cccnc12 | inactive: 17.1%
COc1ccc(/C=C(/NC(=O)c2cccs2)C(=O)Nc2ccc(C)cc2)cc1OC | inactive: 13.8%
COc1ccc(NS(=O)(=O)c2cc(C(=O)NNC(=O)c3ccncc3)ccc2OC)c(OC)c1 | inactive: -9.55%
CCOC(CCNC(=O)c1cn(CC(C)C)c(=O)c2c1c1ccccc1n2C)OCC | inactive: 3.11%
COc1cc2c(c(OC)c1OC)-c1ccc(N(C)CC(OC)OC)c(=O)cc1[C@@H](NC(C)=O)CC2 | inactive: 11.6%
Cc1sc2ncn(CC(=O)NCC3COc4ccccc4O3)c(=O)c2c1S(=O)(=O)N1CCOCC1 (configuration not stated) | inactive: -7.25%
Clc1cccc(N2CCN(c3nc4ccccc4n4nnnc34)CC2)c1 | inactive: 5.07%
O=C(CSc1nnc(-c2cnccn2)n1Cc1ccco1)Nc1ccc(Br)cc1 | inactive: -4.45%
C=CCn1c(SCC(=O)c2[nH]c(C)c(C(=O)OCC)c2C)nc2scc(-c3ccc(OC)c(OC)c3)c2c1=O | inactive: -13.3%
CC(C)Nc1nc(NCCN2CCNC2=O)c2sccc2n1 | inactive: 14.6%
COc1ccc(NC(=O)CN(C)C(=O)c2ccc3ccccc3n2)cc1 | inactive: -2.95%
Cc1cc(N2CCOCC2)nc2ccc(NC(=S)NCCN(C)C)cc12 | inactive: 3.07%
COc1ccc(C(=O)N[C@H](C(=O)NCc2ccccc2)C(C)C)cc1 | inactive: -2.72%
O=[N+]([O-])c1cccc(/C=N/Nc2nc(N3CCCCC3)nc(N3CCCCC3)n2)c1 | inactive: 9.46%
N#Cc1cccc(NC(=O)Cc2ccsc2)c1 | inactive: 8.13%
COc1ccc(NC(=S)N2CCC(NC(=O)C3CCCCC3)CC2)cc1 | inactive: -10.2%
